According to the supplement of paper PMC7726561:
In all, about 1,400 sequences were measured (“thermal melting temperature (Tm) of peptide-HLA complex”: median about 60, lowest 2% from about 45 on). Some of the results follow.
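Further: cell lysates heated 10 min at 37–73 °C, remaining pHLA pulled down with pan-class I antibody, peptides quantified by DIA-MS versus 37 °C, Tm where half the complex is lost.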

What follows are sequences tested against HLA-B*07:02 (assay: thermal melting temperature (Tm) of peptide-HLA complex; higher = more thermostable pHLA complex). Details: C1R-B*07:02.
In the case of APRVLQQTL, the thermal melting temperature is reported as 61.2 °C.
In the case of MPKLRVLEL, the thermal melting temperature is reported as 57.1 °C.
Work on RPALPGLAR yielded a thermal melting temperature of 62.5 °C.
LPGLRDLVL was tested, and the thermal melting temperature was 61.7 °C.
For LPKATILDL, the thermal melting temperature was 61.6 °C.
In the case of YPFKPPKVAF, the thermal melting temperature is reported as 58.5 °C.
SPLNRAGLL was tested, and the thermal melting temperature was 59.8 °C.
For HPNSNLLDL, the thermal melting temperature was 58.7 °C.
AARPVPWNAL was tested, and the thermal melting temperature was 59.2 °C.
In the case of GPLGSTIPM, the thermal melting temperature is reported as 61.6 °C.
Work on FPQMGRFTL yielded a thermal melting temperature of 57.4 °C.
In the case of APVAPHFAL, the thermal melting temperature is reported as 62.1 °C.
With SPASRSISL the thermal melting temperature was 61 °C.
RPAPAAPLL gave a thermal melting temperature of 61.1 °C.
Sequence KPRDVSSVEL has a thermal melting temperature of 59.8 °C.
With RPAPLVQQL the thermal melting temperature was 58.3 °C.
SPYFQRPLAL gave a thermal melting temperature of 60.8 °C.
VPVGPHLSL was tested, and the thermal melting temperature was 60.8 °C.
With SPKSPTAAL the thermal melting temperature was 60.1 °C.
In the case of IPRGADNLVAI, the thermal melting temperature is reported as 61.8 °C.
Sequence RPAQVSQPF has a thermal melting temperature of 60.2 °C.
APKPGGLSL was tested, and the thermal melting temperature was 61.7 °C.
APRFSSAVGL was tested, and the thermal melting temperature was 61.7 °C.
RPPEVILEL gave a thermal melting temperature of 62.1 °C.
In the case of IPRLIVSQL, the thermal melting temperature is reported as 62.5 °C.
In the case of VPRPPSLLATL, the thermal melting temperature is reported as 62.9 °C.
For LPSNARGPIL, the thermal melting temperature was 56.6 °C.
Sequence LPSKPYSTL has a thermal melting temperature of 59.2 °C.
QPYAFTTKSL was tested, and the thermal melting temperature was 57.6 °C.
APRVLSFSL gave a thermal melting temperature of 62 °C.
In the case of IPALRDISI, the thermal melting temperature is reported as 62.6 °C.
Sequence KPASFMTSI has a thermal melting temperature of 59.7 °C.
With APAELKSPF the thermal melting temperature was 60.7 °C.
Sequence RPYSQVNVL has a thermal melting temperature of 59.8 °C.
For SPTKLDVTL, the thermal melting temperature was 54.9 °C.
With KPGDFIHTL the thermal melting temperature was 55.6 °C.
